# Reference: the supplement of paper PMC8728848
# This is one part of the list.
# Assays:
# Test in all cases: glycan array binding signal (z-score within array); higher = stronger binding
# Conditions in all cases: glycan notation: IUPAC condensed, linker removed
# [1] = target: Neu5Ac(a2-3)Gal(b1-4)GlcNAc(b1-3)[Neu5Ac(a2-3)Gal(b1-4)GlcNAc(b1-6)]GalNAc
# How it was run: (§1)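 Glycan array binding is given as a within-array Z-score, which can be read as non-binding when negative. The arrays, 3228 of them, came from the Consortium for Functional Glycomics database and were retained only where the protein sequence was available. Z-scores were averaged across arrays of the same protein sequence at different concentrations or buffers and across linkers.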
# [2] = target: Neu5Ac(a2-3)Gal(b1-4)GlcNAc(b1-6)GalNAc
# How it was run: as §1
# [3] = target: Neu5Ac(a2-3)Gal(b1-4)GlcNAc(b1-6)[Gal(b1-3)]GalNAc
# How it was run: as §1
# [4] = target: Neu5Ac(a2-3)Gal(b1-4)GlcNAc(b1-6)[Neu5Ac(a2-3)Gal(b1-3)]GalNAc
# How it was run: as §1
# [5] = target: Neu5Ac(a2-3)Gal(b1-4)GlcNAc6S
# How it was run: as §1
# [6] = target: Neu5Ac(a2-3)Gal(b1-4)[Fuc(a1-3)]GlcNAc
# How it was run: as §1
# [7] = target: Neu5Ac(a2-3)Gal(b1-4)[Fuc(a1-3)]GlcNAc(b1-2)Man
# How it was run: as §1
# [8] = target: Neu5Ac(a2-3)Gal(b1-4)[Fuc(a1-3)]GlcNAc(b1-3)Gal
# How it was run: as §1
# [9] = target: Neu5Ac(a2-3)Gal(b1-4)[Fuc(a1-3)]GlcNAc(b1-3)Gal(b1-4)GlcNAc
# How it was run: as §1
# [10] = target: Neu5Ac(a2-3)Gal(b1-4)[Fuc(a1-3)]GlcNAc(b1-3)Gal(b1-4)[Fuc(a1-3)]GlcNAc(b1-3)Gal(b1-4)[Fuc(a1-3)]GlcNAc
# How it was run: as §1
# [11] = target: Neu5Ac(a2-3)Gal(b1-4)[Fuc(a1-3)]GlcNAc(b1-3)GalNAc
# How it was run: as §1
# [12] = target: Neu5Ac(a2-3)Gal(b1-4)[Fuc(a1-3)]GlcNAc(b1-6)[Gal(b1-3)]GalNAc
# How it was run: as §1
# [13] = target: Neu5Ac(a2-3)Gal(b1-4)[Fuc(a1-3)]GlcNAc(b1-6)[Neu5Ac(a2-3)Gal(b1-3)]GalNAc
# How it was run: as §1
# [14] = target: Neu5Ac(a2-3)Gal(b1-4)[Fuc(a1-3)]GlcNAc6S
# How it was run: as §1
# [15] = target: Neu5Ac(a2-3)Gal6S(b1-4)GlcNAc
# How it was run: as §1
# [16] = target: Neu5Ac(a2-3)Gal6S(b1-4)[Fuc(a1-3)]GlcNAc
# How it was run: as §1
# Neu5Ac(a2-3)GalNAc = target: Neu5Ac(a2-3)GalNAc
# How it was run: as §1
# [17] = target: Neu5Ac(a2-3)GalNAc(b1-4)GlcNAc
# How it was run: as §1
# [18] = target: Neu5Ac(a2-3)[GalNAc(b1-4)]Gal(b1-4)Glc
# How it was run: as §1
# [19] = target: Neu5Ac(a2-3)[GalNAc(b1-4)]Gal(b1-4)GlcNAc
# How it was run: as §1
# [20] = target: Neu5Ac(a2-3)[GalNAc(b1-4)]Gal(b1-4)GlcNAc(b1-3)GalNAc
# How it was run: as §1
# [21] = target: Neu5Ac(a2-3)[Neu5Ac(a2-6)]GalNAc
# How it was run: as §1
# Neu5Ac(a2-6)Gal = target: Neu5Ac(a2-6)Gal
# How it was run: as §1
# [22] = target: Neu5Ac(a2-6)Gal(b1-3)GlcNAc(b1-3)[Gal(b1-4)GlcNAc(b1-6)]Gal(b1-4)Glc
# How it was run: as §1
# Neu5Ac(a2-6)Gal(b1-4)Glc = target: Neu5Ac(a2-6)Gal(b1-4)Glc
# How it was run: as §1
# [23] = target: Neu5Ac(a2-6)Gal(b1-4)GlcNAc
# How it was run: as §1
# [24] = target: Neu5Ac(a2-6)Gal(b1-4)GlcNAc(b1-2)Man
# How it was run: as §1
# [25] = target: Neu5Ac(a2-6)Gal(b1-4)GlcNAc(b1-2)Man(a1-3)Man(b1-4)GlcNAc(b1-4)GlcNAc
# How it was run: as §1
# [26] = target: Neu5Ac(a2-6)Gal(b1-4)GlcNAc(b1-2)Man(a1-3)[Gal(b1-4)GlcNAc(b1-2)Man(a1-6)]Man(b1-4)GlcNAc(b1-4)GlcNAc
# How it was run: as §1
# [27] = target: Neu5Ac(a2-6)Gal(b1-4)GlcNAc(b1-2)Man(a1-3)[GlcNAc(b1-2)Man(a1-6)]Man(b1-4)GlcNAc(b1-4)GlcNAc
# How it was run: as §1
# [28] = target: Neu5Ac(a2-6)Gal(b1-4)GlcNAc(b1-2)Man(a1-3)[GlcNAc(b1-4)][Neu5Ac(a2-6)Gal(b1-4)GlcNAc(b1-2)Man(a1-6)]Man(b1-4)GlcNAc(b1-4)GlcNAc
# How it was run: as §1
# [29] = target: Neu5Ac(a2-6)Gal(b1-4)GlcNAc(b1-2)Man(a1-3)[Man(a1-6)]Man(b1-4)GlcNAc(b1-4)GlcNAc
# How it was run: as §1
# [30] = target: Neu5Ac(a2-6)Gal(b1-4)GlcNAc(b1-2)Man(a1-3)[Neu5Ac(a2-3)Gal(b1-4)GlcNAc(b1-2)Man(a1-6)]Man(b1-4)GlcNAc(b1-4)GlcNAc
# How it was run: as §1
# [31] = target: Neu5Ac(a2-6)Gal(b1-4)GlcNAc(b1-2)Man(a1-3)[Neu5Ac(a2-6)Gal(b1-4)GlcNAc(b1-2)Man(a1-6)]Man(b1-4)GlcNAc(b1-4)GlcNAc
# How it was run: as §1
# [32] = target: Neu5Ac(a2-6)Gal(b1-4)GlcNAc(b1-2)Man(a1-3)[Neu5Ac(a2-6)Gal(b1-4)GlcNAc(b1-2)Man(a1-6)]Man(b1-4)GlcNAc(b1-4)[Fuc(a1-6)]GlcNAc
# How it was run: as §1
# [33] = target: Neu5Ac(a2-6)Gal(b1-4)GlcNAc(b1-2)Man(a1-6)Man(b1-4)GlcNAc(b1-4)GlcNAc
# How it was run: as §1
# [34] = target: Neu5Ac(a2-6)Gal(b1-4)GlcNAc(b1-2)Man(a1-6)[Gal(b1-4)GlcNAc(b1-2)Man(a1-3)]Man(b1-4)GlcNAc(b1-4)GlcNAc
# How it was run: as §1
# [35] = target: Neu5Ac(a2-6)Gal(b1-4)GlcNAc(b1-2)Man(a1-6)[GlcNAc(b1-2)Man(a1-3)]Man(b1-4)GlcNAc(b1-4)GlcNAc
# How it was run: as §1
# [36] = target: Neu5Ac(a2-6)Gal(b1-4)GlcNAc(b1-2)Man(a1-6)[Man(a1-3)]Man(b1-4)GlcNAc(b1-4)GlcNAc
# How it was run: as §1
# [37] = target: Neu5Ac(a2-6)Gal(b1-4)GlcNAc(b1-2)[Neu5Ac(a2-6)Gal(b1-4)GlcNAc(b1-4)]Man(a1-3)[GlcNAc(b1-4)][Neu5Ac(a2-6)Gal(b1-4)GlcNAc(b1-2)[Neu5Ac(a2-6)Gal(b1-4)GlcNAc(b1-6)]Man(a1-6)]Man(b1-4)GlcNAc(b1-4)GlcNAc
# How it was run: as §1
# [38] = target: Neu5Ac(a2-6)Gal(b1-4)GlcNAc(b1-2)[Neu5Ac(a2-6)Gal(b1-4)GlcNAc(b1-4)]Man(a1-3)[GlcNAc(b1-4)][Neu5Ac(a2-6)Gal(b1-4)GlcNAc(b1-4)Man(a1-6)]Man(b1-4)GlcNAc(b1-4)GlcNAc
# How it was run: as §1
# [39] = target: Neu5Ac(a2-6)Gal(b1-4)GlcNAc(b1-2)[Neu5Ac(a2-6)Gal(b1-4)GlcNAc(b1-6)]Man(a1-6)[Neu5Ac(a2-6)Gal(b1-4)GlcNAc(b1-2)Man(a1-3)][GlcNAc(b1-4)]Man(b1-4)GlcNAc(b1-4)GlcNAc
# How it was run: as §1
# [40] = target: Neu5Ac(a2-6)Gal(b1-4)GlcNAc(b1-3)Gal(b1-3)GlcNAc
# How it was run: as §1
# [41] = target: Neu5Ac(a2-6)Gal(b1-4)GlcNAc(b1-3)Gal(b1-4)GlcNAc
# How it was run: as §1
# [42] = target: Neu5Ac(a2-6)Gal(b1-4)GlcNAc(b1-3)Gal(b1-4)GlcNAc(b1-2)Man(a1-3)[Neu5Ac(a2-6)Gal(b1-4)GlcNAc(b1-3)Gal(b1-4)GlcNAc(b1-2)Man(a1-6)]GalNAc
# How it was run: as §1
# [43] = target: Neu5Ac(a2-6)Gal(b1-4)GlcNAc(b1-3)Gal(b1-4)GlcNAc(b1-3)Gal(b1-4)GlcNAc
# How it was run: as §1
binder,measurement,setting,value
PX9961A-pdi-456-24-456 (Parabacteroides distasonis) (protein) KTSSTQLPTIDAISSVADLTNAVNGVYEQQATEVGSYGAEFTLLADLRSGDFQSISTVNHAGPMYRYQTGKNDEMVYSFYKLFYNSLARLNNVLAAAENLEGADVDILKGELYAMRALYHFDLARVFAKLPSTTDMNDLGIVLSTEVYPTDYIGTRATLQQTYDQILKDIETALPLLSKDKQTGHINYWGALAIRARAYLYLEKNKEALADCKEIIASSPYKLYTRDEYIGAWDKEGTNEAIFEILVTPNYNAQRNSIGYFTHASGYGECAATESFLEELAKHPGDIRTELFAKETDNGYDGTYPQKYKGRDGQIYVNNPKVVRLSEVYLIAAEAALKAGDTSAAAGYMNTLRKNRIENYTDVASITLDDILLERRLELFTEGHTAWDAWRNGKSVNNKFVGEVKPGDYRTIMAIPIGEITVSRGQLIQNPGY,glycan array binding signal (z-score),[1],-0.095
same,glycan array binding signal (z-score),[2],0.101
same,glycan array binding signal (z-score),[3],-0.242
same,glycan array binding signal (z-score),[4],0.08
same,glycan array binding signal (z-score),[5],-0.019
same,glycan array binding signal (z-score),[6],-0.27
same,glycan array binding signal (z-score),[7],-0.398
same,glycan array binding signal (z-score),[8],-0.497
same,glycan array binding signal (z-score),[9],0.573
same,glycan array binding signal (z-score),[10],-0.096
same,glycan array binding signal (z-score),[11],1.11
same,glycan array binding signal (z-score),[12],0.332
same,glycan array binding signal (z-score),[13],0.273
same,glycan array binding signal (z-score),[14],-0.012
same,glycan array binding signal (z-score),[15],-0.307
same,glycan array binding signal (z-score),[16],-0.24
same,glycan array binding signal (z-score),Neu5Ac(a2-3)GalNAc,-0.483
same,glycan array binding signal (z-score),[17],-0.364
same,glycan array binding signal (z-score),[18],0.11
same,glycan array binding signal (z-score),[19],-0.489
same,glycan array binding signal (z-score),[20],0.641
same,glycan array binding signal (z-score),[21],-0.477
same,glycan array binding signal (z-score),Neu5Ac(a2-6)Gal,-0.046
same,glycan array binding signal (z-score),[22],-0.617
same,glycan array binding signal (z-score),Neu5Ac(a2-6)Gal(b1-4)Glc,0.433
same,glycan array binding signal (z-score),[23],-0.245
same,glycan array binding signal (z-score),[24],-0.372
same,glycan array binding signal (z-score),[25],-0.293
same,glycan array binding signal (z-score),[26],0.305
same,glycan array binding signal (z-score),[27],-0.47
same,glycan array binding signal (z-score),[28],-0.202
same,glycan array binding signal (z-score),[29],-0.58
same,glycan array binding signal (z-score),[30],-0.397
same,glycan array binding signal (z-score),[31],-0.198
same,glycan array binding signal (z-score),[32],0.763
same,glycan array binding signal (z-score),[33],-0.434
same,glycan array binding signal (z-score),[34],-0.101
same,glycan array binding signal (z-score),[35],-0.653
same,glycan array binding signal (z-score),[36],-0.241
same,glycan array binding signal (z-score),[37],0.806
same,glycan array binding signal (z-score),[38],-0.061
same,glycan array binding signal (z-score),[39],-0.07
same,glycan array binding signal (z-score),[40],-0.085
same,glycan array binding signal (z-score),[41],-0.41
same,glycan array binding signal (z-score),[42],-0.415
same,glycan array binding signal (z-score),[43],-0.16
